# From publication PMC4336329 (PLoS ONE, 2015)
# The whole screen tested about 310,000 compounds, of which about 14,000 (4.5%) showed an effect of 50% or more. The effect is printed as a negative number. This is one part of the list.
# Molecular target: human ether-à-go-go-related gene (hERG) potassium channel (human, UniProt Q12809)
# Assay: primary screen, population patch clamp on CHO cells stably expressing hERG
# 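Further: peak tail current of the secondary pulse compared with the same well before compound.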
# Chain of human ether-à-go-go-related gene (hERG) potassium channel (Q12809 whole entry, looked up): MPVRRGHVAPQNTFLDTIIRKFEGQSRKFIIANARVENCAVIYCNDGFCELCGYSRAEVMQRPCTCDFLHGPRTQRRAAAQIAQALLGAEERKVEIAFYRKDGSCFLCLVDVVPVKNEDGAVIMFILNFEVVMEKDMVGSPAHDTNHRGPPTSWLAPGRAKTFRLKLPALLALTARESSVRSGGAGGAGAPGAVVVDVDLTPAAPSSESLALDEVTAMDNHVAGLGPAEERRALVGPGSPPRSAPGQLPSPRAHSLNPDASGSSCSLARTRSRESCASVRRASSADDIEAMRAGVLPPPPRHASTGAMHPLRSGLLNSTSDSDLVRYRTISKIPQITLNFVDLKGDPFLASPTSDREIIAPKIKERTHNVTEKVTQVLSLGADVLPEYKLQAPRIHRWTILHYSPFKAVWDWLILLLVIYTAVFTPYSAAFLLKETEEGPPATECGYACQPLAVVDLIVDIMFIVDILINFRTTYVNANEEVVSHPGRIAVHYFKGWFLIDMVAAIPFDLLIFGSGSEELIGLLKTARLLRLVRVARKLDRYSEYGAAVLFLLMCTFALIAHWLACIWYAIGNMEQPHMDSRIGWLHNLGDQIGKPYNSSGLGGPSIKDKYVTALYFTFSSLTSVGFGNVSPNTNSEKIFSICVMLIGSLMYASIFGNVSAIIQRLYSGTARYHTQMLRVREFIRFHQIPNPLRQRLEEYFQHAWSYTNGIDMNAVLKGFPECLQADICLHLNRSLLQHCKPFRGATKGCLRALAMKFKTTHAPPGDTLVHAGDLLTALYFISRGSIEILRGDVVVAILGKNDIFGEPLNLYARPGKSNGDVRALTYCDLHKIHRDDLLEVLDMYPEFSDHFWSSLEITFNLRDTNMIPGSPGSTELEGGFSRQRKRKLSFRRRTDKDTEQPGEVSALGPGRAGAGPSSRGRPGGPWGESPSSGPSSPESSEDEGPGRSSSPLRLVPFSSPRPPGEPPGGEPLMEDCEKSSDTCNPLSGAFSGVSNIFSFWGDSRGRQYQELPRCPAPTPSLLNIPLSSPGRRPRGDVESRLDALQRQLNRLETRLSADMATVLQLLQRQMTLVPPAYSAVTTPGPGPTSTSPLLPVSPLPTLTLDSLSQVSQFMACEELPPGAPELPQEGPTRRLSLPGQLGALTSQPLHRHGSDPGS
row,SMILES,"hERG current change (%, negative = inhibition) at 10uM"
1,O=C(O)c1ccc(NC(=O)c2ccccc2NC(=O)c2cccc(Br)c2)cc1,12.2%
2,Cc1sc2c(c1C)c(=O)n(-c1ccc(Cl)cc1)c(=O)n2Cc1cc(=O)n2ccccc2n1,-36.4%
3,Cc1cc(OCCn2ccnc2)ccc1C(C)C,0.214%
4,CC(=O)c1ccc(-n2c(-c3cc(-c4ccsc4)n[nH]3)n[nH]c2=S)cc1,20.3%
5,Cc1ccc(S(=O)(=O)NCCc2nnc(SCc3cccnc3)n2C)cc1,2.38%
6,CCCCNc1nc(=S)[nH]c2cc(OC)c(OC)cc12,-43.1%
7,CCN(CC)CCCNC(=O)c1cn(CC)c2ccc(S(=O)(=O)N(C)C3CCCCC3)cc2c1=O,-75.7%
8,COc1ccccc1CCNCc1ccc(OC)c(OCc2ccccc2)c1,-71.9%
9,Cc1ccc2cc(CN(CCCO)S(=O)(=O)c3ccccc3F)c(=O)[nH]c2c1C,-9.6%
10,N#CCCN(C(=O)Nc1ccc(Cl)cc1)c1ccccc1,-7.73%
11,CC1CCN(c2c(NCC3CCC(C(=O)NCCC4=CCCCC4)CC3)c(=O)c2=O)CC1 (stereo not drawn),0.506%
12,CC1Cc2ccccc2N1C(=O)CCS(=O)(=O)c1cccs1 (stereo not drawn),0.682%
13,C(=N\c1nc2ccccc2n1CCN1CCCCC1)/c1ccc2c(c1)OCO2,-45.6%
14,CC(OC(=O)CSc1ccc(F)cc1)C(=O)NC1(C#N)CCCCC1 (stereo not drawn),9.52%
15,CCN1CCN(c2ncc(C(=O)Nc3ccccc3C(=O)OC)c3ccccc23)CC1,-47.2%
16,COC(=O)c1c(C)[nH]c(C(=O)C(C)OC(=O)c2c(C)noc2C)c1C (stereo not drawn),2.9%
17,Cc1sc2c(c1C)C(=O)/C(=C\Nc1ccncc1)S(=O)(=O)N2C,16.8%
18,c1cc2c(cc1[C@H]1OC[C@H]3[C@@H]1CO[C@@H]3c1ccc3c(c1)OCO3)OCO2,-19.2%
19,CSCC[C@H](NC(=O)CC(C)(C)C)c1nc2ccccc2[nH]1,-22%
20,CC(=O)Oc1ccc2nc(-c3ccc(Br)o3)oc(=O)c2c1,21.5%
21,CCOc1ccc(N(CC(=O)NCCSCc2ccc(C)cc2)S(C)(=O)=O)cc1,10.1%
22,CC(=O)Oc1ccc2oc(=O)c3c(c2c1)CCCN3C(=O)CN1CCOCC1,1.97%
23,COC/C=C/C1=CC2=CC(=O)C(C)(OC(=O)c3cnc4ccccc4n3)C(=O)C2=CN1C(CO)CO (stereo not drawn),4.76%
24,C/C=C/CSc1nc2c(c(=O)[nH]c(=O)n2C)n1Cc1ccc(C)cc1,-6.04%
25,Fc1ccc(-n2c(-c3ccc4ccccc4n3)n[nH]c2=S)cc1Cl,31%
26,O=C(Nc1ccccc1Cl)OCc1cncs1,21.9%
27,CCOC(=O)c1cnn(-c2ncnc3sc(C)c(C)c23)c1N,1.79%

row,SMILES,"hERG current change (%, negative = inhibition) at 10uM"
1,CCC(C)NC(=O)CSc1nc(-c2cccs2)cc(C(F)(F)F)n1 (stereo not drawn),-2.68%
2,COc1cc(NC(=O)CN(C)S(=O)(=O)c2ccc3c(c2)CC(C)N3C(C)=O)cc(OC)c1 (stereo not drawn),-5.42%
3,Cc1nnc(SCC(=O)N2CCN(C(=O)c3ccco3)CC2)n1-c1ccccc1,18.2%
4,O=C(O)C/C=C(\NC(=O)OCc1ccccc1)C(=O)OCc1ccccc1,10%
5,Cc1cccc(NC(=O)CNC(=O)COC(=O)CCS(=O)(=O)c2ccccc2)c1C,15.1%
6,FC(F)c1nnc2c(Cl)cc(C(F)(F)F)cn12,17.6%
7,COc1ccc(CN(CCC#N)C(=S)NC(=O)c2ccccc2)cc1,0.624%
8,COc1ccc(-c2nnc(SC(C)C(=O)NNC(=O)c3ccc(C)cc3)o2)cc1 (stereo not drawn),8.04%
9,COc1cc(NS(=O)(=O)c2ccc(NC(=S)NC(=O)CC(C)C)cc2)nc(OC)n1,11.4%
10,CCNC(=O)N1CCC(c2nc3ccccc3s2)CC1,10.3%
11,COc1ccc(-n2c(COc3ccc(C)cc3)nnc2SCc2ccc(C#N)cc2)cc1,-29.6%
12,COc1ccc(C(C(=O)NC2CCCCC2)N(C(=O)c2snc(C(N)=O)c2N)c2ccc(OC)cc2OC)cc1 (stereo not drawn),9.37%
13,O=C(Nc1ccc2oc(-c3ccncc3)nc2c1)c1ccccc1F,-4.45%
14,CN(Cc1ccccc1F)C(=O)COc1ccc(C(=O)c2ccccc2)cc1,-13.9%
15,Cc1cc(C)cc(N2C(=O)CN(Cc3sccc3C)C2=S)c1,2.49%
16,Cc1nc2ccc(NC(=O)c3cc(S(=O)(=O)N(C)c4ccccc4)ccc3Cl)cc2s1,4.9%
17,CCC(C)NS(=O)(=O)c1ccc(NC(=O)C2CCCO2)cc1 (stereo not drawn),17.8%
18,CSCC[C@H](NC(=O)C(C)(C)Oc1ccc(Cl)cc1)c1nc2ccccc2[nH]1,8.89%
19,Cc1ccc(CCNC(=O)CCNS(=O)(=O)c2ccc3c(c2)oc(=O)n3C)cc1,-18%
20,FC(F)(F)c1cnc(Oc2cccc3ccccc23)c(Cl)c1,5.05%
21,Cc1ccc(S(=O)(=O)NC23CC4CC(CC(C4)C2)C3)cc1,3.97%
22,CCC(=O)N1CCc2cc(S(=O)(=O)CCC(=O)N3CCN(c4ccc(C(C)=O)cc4)CC3)ccc21,13.1%
23,CN(C)S(=O)(=O)c1ccc(Cl)c(C(=O)NC2=NCCS2)c1,15.9%
24,CSc1ccc(/C=N/N2CCN(Cc3ccccc3)CC2)cc1,-5.46%
25,COc1ccc(N2CCN(C(=O)Cn3c(=O)[nH]c4ccccc4c3=O)CC2)cc1,14.7%
26,CCCc1nc(NCc2ccc3c(c2)OCO3)c2nnn(Cc3ccccc3Cl)c2n1,11.5%
27,Cc1cc(NC(=O)CSc2[nH]c(=O)cc(C(F)(F)F)c2C#N)no1,-2.45%
